Assay results published in patent US9574016B2, “Complex of bi-specific antibody and digoxigenin conjugated to a therapeutic or diagnostic agent” (Hoffmann-La Roche Inc., priority 2009, dated 2017).

Legend:
[1] = molecular target: siRNA-DIG (Eg5-siRNA-DIG); experiment: SPR (Biacore) binding to mono-digoxygenated siRNA; conditions: 25° C.
[2] = molecular target: siRNA-(2x)DIG (Eg5-siRNA-(2×)DIG); experiment: SPR (Biacore) binding to bi-digoxygenated siRNA; conditions: 25° C.
DIG-Myoglobin = experiment: SPR study, binding to DIG-myoglobin; conditions: analyte DIG-Myoglobin; listed as <DIG>hu2
Experimental: (§1) For that, binding properties of the recombinant <Dig> derivatives were analyzed by surface plasmon resonance (SPR) technology using a Biacore T100 or Biacore 3000 instrument (GE Healthcare Bio-Sciences AB, Uppsala). This system is well established for the study of molecule interactions. It allows a continuous real-time monitoring of ligand/analyte bindings and thus the determination of association rate constants (ka), dissociation rate constants (kd), and equilibrium constants (KD) in various assay settings. SPR-technology is based on the measurement of the refractive index close to the surface of a gold coated biosensor chip. Changes in the refractive index indicate mass changes on the surface caused by the interaction of immobilized ligand with analyte injected in solution. If molecules bind to immobilized ligand on the surface the mass increases, in case of dissociation the mass decreases. To perform the binding studies capturing anti-human IgG antibody was immobilized on the surface of a CM5 biosensor chip using amine-coupling chemistry. Flow cells were activated with a 1:1 mixture of 0.1 M N-hydroxysuccinimide and 0.1 M 3-(N,N-dimethylamino)propyl-N-ethylcarbodiimide at a flow rate of 5 μl/min. […] A reference control flow cell was treated in the same way but with vehicle buffers only instead of the capturing antibody. […]

DIG-siRNA2349 = experiment: SPR study, binding to DIG-siRNA2349; conditions: analyte DIG-siRNA2349; listed as <DIG>hu2
Experimental: as §1, with “antibody. Surfaces were blocked with an injection of 1 M ethanolamine/HCl pH 8.5. To compare the binding of the humanized protein variants with that of the murine <Dig> IgG from the original hybridoma 19-11, capturing anti-mouse IgG antibody was immobilized on the surface of a CM5 biosensor chip in the same fashion as described above for the anti-human IgG antibody. To evaluate the functionality of the recombinant <Dig> derivatives, binding of the recombinant hu<Dig> modules, incl.” for “antibody.”

B1: humanized DIG-IgG: recombinant humanized <Dig> IgG defined by Seq. ID. NO. 3, 4, 5 and 6 (protein)
chain 1: QVQLVESGGGLVKPGGSLRLSCAASGFTFSDYAMSWIRQAPGKGLEWVSSINIGATYIYYADSVKGRFTISRDNAKNSLYLQMNSLRAEDTAVYYCARPGSPYEYDKAYYSMAYWGQGTTVTVSS
chain 2: QVQLVESGGGLVKPGGSLRLSCAASGFTFSDYAMSWIRQAPGKGLEWVSSINIGATYIYYADSVKGRFTISRDNAKNSLYLQMNSLRAEDTAVYYCARPGSPYEYDKAYYSMAYWGQGTTVTVSS[human IgG1 constant region not shown]
chain 3: DIQMTQSPSSLSASVGDRVTITCRASQDIKNYLNWYQQKPGKAPKLLIYYSSTLLSGVPSRFSGSGSGTDFTLTISSLQPEDFATYYCQQSITLPPTFGGGTKVEIKR
chain 4: DIQMTQSPSSLSASVGDRVTITCRASQDIKNYLNWYQQKPGKAPKLLIYYSSTLLSGVPSRFSGSGSGTDFTLTISSLQPEDFATYYCQQSITLPPTFGGGTKVEIKRTVAAPSVFIFPPSDEQLKSGTASVVCLLNNFYPREAKVQWKVDNALQSGNSQESVTEQDSKDSTYSLSSTLTLSKADYEKHKVYACEVTHQGLSSPVTKSFNRGEC
modifications: Humanized <dig> VH; Humanized <dig> H-chain; humanized <dig> VL; humanized <dig> L-chain
Kd [1]: 12 nM | Kd [2]: 8 pM | ka (DIG-Myoglobin): 620000 M⁻¹ s⁻¹ and 749000 M⁻¹ s⁻¹ | kd (DIG-Myoglobin): 0.00982 s⁻¹ and 0.00881 s⁻¹ | Kd (DIG-siRNA2349): 14.5 nM and 15.6 nM | ka (DIG-siRNA2349): 645000 M⁻¹ s⁻¹ and 628000 M⁻¹ s⁻¹ | kd (DIG-siRNA2349): 0.00937 s⁻¹ and 0.0098 s⁻¹

Several values for one entry are separate records, joined by “and”; a condition that tells them apart may be missing. Identical values can stand only once.
